# Data as given in paper PMC4336329 (PLoS ONE, 2015).
# The campaign covered roughly 310,000 compounds. About 14,000 (4.5%) showed an effect of 50% or more. Effects have a minus sign here. The list shows a part of the results.
# Biological target: human ether-à-go-go-related gene (hERG) potassium channel (human, UniProt Q12809)
# Assay: primary screen, population patch clamp on CHO cells stably expressing hERG
# 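Also: peak tail current of the secondary pulse compared with the same well before compound.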
# human ether-à-go-go-related gene (hERG) potassium channel, sequence (Q12809 whole entry, looked up): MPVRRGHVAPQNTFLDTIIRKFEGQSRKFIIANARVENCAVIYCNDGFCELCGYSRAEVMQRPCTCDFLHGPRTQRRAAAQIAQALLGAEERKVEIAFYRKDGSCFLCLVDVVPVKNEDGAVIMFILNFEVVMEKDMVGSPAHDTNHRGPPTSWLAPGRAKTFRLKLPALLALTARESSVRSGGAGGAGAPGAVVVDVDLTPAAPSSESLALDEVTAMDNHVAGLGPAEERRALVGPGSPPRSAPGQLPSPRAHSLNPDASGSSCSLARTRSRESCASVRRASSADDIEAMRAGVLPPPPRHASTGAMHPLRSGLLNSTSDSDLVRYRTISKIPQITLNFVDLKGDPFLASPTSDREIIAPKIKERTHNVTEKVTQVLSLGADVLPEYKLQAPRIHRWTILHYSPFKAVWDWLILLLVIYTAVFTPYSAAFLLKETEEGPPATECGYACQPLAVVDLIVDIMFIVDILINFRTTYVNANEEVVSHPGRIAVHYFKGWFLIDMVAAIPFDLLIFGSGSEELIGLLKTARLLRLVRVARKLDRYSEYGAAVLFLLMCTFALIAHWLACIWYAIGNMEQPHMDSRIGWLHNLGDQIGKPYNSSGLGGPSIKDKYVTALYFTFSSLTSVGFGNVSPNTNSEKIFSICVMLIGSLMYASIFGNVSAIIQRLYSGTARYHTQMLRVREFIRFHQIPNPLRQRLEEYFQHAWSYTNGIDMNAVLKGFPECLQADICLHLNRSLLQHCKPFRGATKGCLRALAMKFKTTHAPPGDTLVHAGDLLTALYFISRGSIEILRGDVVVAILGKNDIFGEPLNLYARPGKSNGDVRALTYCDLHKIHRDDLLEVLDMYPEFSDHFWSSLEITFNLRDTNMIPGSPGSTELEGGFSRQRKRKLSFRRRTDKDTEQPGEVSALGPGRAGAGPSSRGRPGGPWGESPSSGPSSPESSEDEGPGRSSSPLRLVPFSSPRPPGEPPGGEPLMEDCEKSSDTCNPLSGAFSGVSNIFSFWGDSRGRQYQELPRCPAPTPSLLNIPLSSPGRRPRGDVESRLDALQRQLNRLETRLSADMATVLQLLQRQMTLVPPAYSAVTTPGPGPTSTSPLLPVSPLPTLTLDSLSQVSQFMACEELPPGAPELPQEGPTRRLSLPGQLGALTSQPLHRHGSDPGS
row,Structure (SMILES),"hERG current change (%, negative = inhibition) at 10uM [%]"
1,COc1cccc(NC(=O)CN(C)C(=O)c2ccc(COc3ccccc3)o2)c1,3.73
2,COc1ccccc1N1C(=O)CCC1(C#N)c1ccccc1 (centres unmarked),-12.7
3,CCNC(=S)NCc1ccc2c(c1)OCO2,6.19
4,CCOCC(=O)Nc1cccc(Br)c1,-1.9
5,O=C(CN=C1NS(=O)(=O)c2ccccc21)OCC(=O)c1cc(F)ccc1F,9.53
6,CC(=O)N1CCOc2ccc(S(=O)(=O)N3CCN(c4cc(C)ccc4C)CC3)cc21,10.7
7,CN1[C@@H]2CC[C@H]1CC(OC(=O)c1c[nH]c3ccccc13)C2.Cl (some centres unmarked),-48.1
8,Cc1ccc2c(c1)COc1c3ccc(C(=O)N[C@@H](C)CO)cc3nn1-2,8.4
9,CN(C(=O)c1cc(COc2c(F)cccc2F)on1)C1CCOC1 (centres unmarked),-3.85
10,Cc1ccc(-n2nc(C)c3c(=O)[nH]c(C(F)(F)F)nc32)cc1,-3.11
11,CC(C)CCSc1nnc(N)s1,16.7
12,Cn1c(C(=O)c2ccccc2)nc2ccccc21,-0.119
13,Fc1ccccc1OCCCCCCN1CCCC1,-38.2
14,Cc1onc(-c2cccc(Cl)c2Cl)c1C(=O)O/N=C(\N)c1ccc([N+](=O)[O-])o1,-65
15,COc1ccc(SC[C@H](Cc2ccccc2)N2CC[C@@H](C)CCC2=O)cc1,-20.1
16,Cc1ccc2sc(-c3ccc(NC(=O)CCN4C(=O)c5ccccc5C4=O)cc3)nc2c1,0.663
17,O=C(COC(=O)COc1ccccc1[N+](=O)[O-])Nc1ccccc1Br,3.82
18,CCC(=O)Nc1ccc(F)c(Cl)c1,20.5
19,Cc1nc2ccc(S(=O)(=O)N(C)CC(=O)N3CCc4ccccc4C3)cc2s1,-53.2

row,Structure (SMILES),"hERG current change (%, negative = inhibition) at 10uM [%]"
1,CN1C(=O)S/C(=C/c2cccnc2)C1=O,-0.904
2,O=C(Nc1ccc(C(=O)N2CCOCC2)cc1)Nc1ccc(Cl)cc1Cl,9.11
3,Cc1cc2cc(CCNC(=O)CCCc3ccccc3)c(=O)[nH]c2cc1C,15.5
4,COc1ccc(CNC(=O)CN(c2cc(C)cc(C)c2)S(=O)(=O)c2c(C)[nH]c(=O)[nH]c2=O)cc1,5.52
5,CCCCC(CC)CNC(=O)C(=O)c1ccccc1NC(C)=O (centres unmarked),0.488
6,CCCOC(=O)c1c(NC(=O)c2cnn3c2NC(c2ccccc2)CC3C(F)(F)F)sc2c1CCCC2 (centres unmarked),-6.38
7,O=C(CCc1ccccc1)Nc1ccc(NC(=O)C2CC2)nc1,-6.17
8,CC(=O)c1cccc(NC(=O)C(C)OC(=O)CCC2CCCCC2)c1 (centres unmarked),-4.11
9,O=C(Nc1ccccc1C(=O)N1CCOCC1)C1CC(=O)N(C2CCCC2)C1 (centres unmarked),21.1
10,CCC[N+]12CCC(CC1)C(=C(c1ccccc1)c1ccccc1)C2.[Br-],-70.1
11,COC(=O)C1CC(O)CN1C(=O)Nc1cccc(C(F)(F)F)c1 (centres unmarked),26.2
12,COc1ccc(CN(C(=O)c2ccco2)c2ccc(C)cc2)cc1OC,-7.32
13,Cc1cccc(NC(=O)NCC(F)(F)F)n1,6.1
14,CCN1CCN(c2ccc(NC(=O)c3cnccn3)cc2)CC1,11.9
15,COc1ccc(C2/C=C\CN(C(=O)Nc3ccc(C(F)(F)F)cc3)CC(=O)N2Cc2ccc(F)cc2)cc1 (centres unmarked),6.55
16,CC(C)N(CCn1cnc2c([nH]c3ccccc32)c1=O)C(C)C,-68.1
17,Cn1c(COc2ccccc2)nc2ccccc21,9.93
18,CC(=O)c1cccc(NC(=O)CN2C(=O)NC3(CCCCCCC3)C2=O)c1,-17.6
19,CC(=O)C1=C(c2ccccc2)NC(=O)NC1c1ccccc1OCC(=O)Nc1ccccc1 (centres unmarked),1.5

row,Structure (SMILES),"hERG current change (%, negative = inhibition) at 10uM [%]"
1,CCn1c(CSc2nc(C)cc(C)n2)nnc1SCC(=O)Nc1ccccc1,-16.5
2,Cc1ccc(C)c(NC(=S)N=Nc2c(O)n(C)c3ccc(S(=O)(=O)N4CCOCC4)cc23)c1,19.7
3,COc1ccc(-c2cc(C(=O)Nc3c(F)cc(F)cc3Br)no2)cc1,16.3
4,O=C(COc1ccc2ccccc2c1)Nc1ccc(Br)cc1C(=O)O,8.35
5,COc1ccc(S(=O)(=O)CC2(O)CCN(C(=O)C(C)(C)C)CC2)cc1,16
6,COC(=O)c1ccc2c(=O)n(CC3CCCO3)c(SCC(=O)Nc3ccccc3OC)nc2c1 (centres unmarked),-4.41
7,CN(CC(=O)Nc1cccc(F)c1)C(=O)CNS(=O)(=O)c1ccc(N(C)C)c([N+](=O)[O-])c1,-3.07
8,CC(C)Cc1nnc(NC(=O)CSc2nc(N)cc(=O)[nH]2)s1,4.59
9,COc1cc2c(c(OC)c1OC)-c1c(cc(OC)c(OC)c1OC)C[C@](C)(O)[C@@H](C)C2,-73.7
10,CCOC(=O)C1CCN(C(=O)CN(C)S(=O)(=O)c2cc(C)ccc2OC)CC1,-14
11,COC(=O)c1cc(NC(=O)Cc2ccc(OC)cc2)cc(C(=O)OC)c1,12.8
12,CN(C)CCCNC1=CC(=O)CC(c2ccccc2)C1 (centres unmarked),3.58
13,COc1cccc(CC(=O)N2CCCC(CO)(Cc3ccc(F)cc3F)C2)c1 (centres unmarked),-0.432
14,C=CCc1cc(C)ccc1OCCOCCC(C(=O)OCC)C(=O)OCC,5.79
15,O=C(COc1ccc(Cl)cc1)OCC(=O)c1ccc[nH]1,-0.892
16,O=C(C1=C[C@@H](c2ccc(C(F)(F)F)cc2)C[C@@H](OCCCCO)O1)N1CCOCC1,-3.65
17,Cc1c(NC(=O)CN2C(=O)NC(CCc3ccccc3)C2=O)c(=O)n(-c2ccccc2)n1C (centres unmarked),5.03
18,CCN(CC)CCNC(=O)C(=O)Nc1cc2c3c(c1)CCN3C(=O)CC2,4.8
